# Source: PubChem BioAssay AID588855 (National Center for Advancing Translational Sciences (NCATS), 2011)
# Several values for one entry are separate records, joined by “and”; a condition that tells them apart may be missing. Equal entries are not always repeated. The campaign covered roughly 410,000 compounds. About 5,000 (1.2%) were called active. The inconclusive results got no clear call from the source; some entries with a clear call stand among them for comparison. The call rests on the fitted dose curve; in most records, active means well fitted inhibition curve with a large enough effect; inconclusive means small, poorly fitted or top-dose-only effect; inactive means no such curve, though single readings can be large or run the other way. A potency beside an inconclusive call is a rough fit, not a confirmed value.
# Experiment: qHTS for Inhibitors of TGF-b; further: nearly all actives have a fitted effect of over 65% in size
# Details: HepG2 CAGA-GFP TGF-b/SMAD3 reporter, GFP fluorescence, 18 h, TGF-beta stimulated, 500 pg/mL final; series mostly up to 46.1 µM
# Method in brief: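 Cell-based qHTS in HEPG2 carrying a CAGA-GFP Smad reporter; compounds added before 500 pg/mL final TGF-beta, 18 h incubation at 37 degrees C, GFP fluorescence quantified per cell by imaging cytometry.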
# Potency means the concentration at half of the fitted maximal effect; tags describe the fitted curve by direction and shape.
row,Structure (SMILES),Potency
1,CC(C)CNC(=S)N1CCC(c2nc(-c3ccc(F)cc3)no2)CC1,inactive
2,O=C(Nc1ccc(Br)cc1F)c1cc(S(=O)(=O)NC2CCCCC2)ccc1F,"inconclusive: 35.5 µM [inhibitor, single point]"
3,Cc1ccc(NC(=S)NCc2ccc3c(c2)OCO3)cc1C,"inconclusive: 3.55 µM [inhibitor, partial curve, poor fit]"
4,COc1cc(O)c(C(CCN2CCCC(C)C2)c2ccc3c(c2)OCO3)c(OC)c1 (stereo unspecified),"inconclusive: 35.5 µM [inhibitor, single point]"
5,O=C(CCOc1ccccc1)N(Cc1cccnc1)c1nc2ccc(Cl)cc2s1,"inconclusive: 11.2 µM [inhibitor, partial curve, poor fit]"
6,CCc1c(C)sc2nc3c(C(=O)N4CCOCC4)cc(C(=O)c4cc(F)ccc4O)cn3c(=O)c12,"inconclusive: 35.5 µM [inhibitor, single point]"
7,NC(=O)CC(NC(=O)Cc1ccc(Cl)cc1)c1ccc(NCCN2CCOCC2)c([N+](=O)[O-])c1 (stereo unspecified),"inconclusive: 5.01 µM [inhibitor, full curve, poor fit]"
8,Cc1cc(C)cc(NC(=S)N(CCN(C)C)Cc2cccs2)c1,inactive
9,Fc1ccc(Sc2ccccc2CNC2=NCCN2)cc1,"inconclusive: 3.16 µM [inhibitor, partial curve, poor fit]"
10,Cc1cccc(NC2=C/C(=N/S(=O)(=O)c3cccs3)c3ccccc3C2=O)c1,"inconclusive: 6.31 µM [inhibitor, single point]"
11,COC(=O)c1scc(-c2ccc(C)cc2)c1S(=O)(=O)N1CCN(c2ccccc2)CC1,"inconclusive: 3.55 µM [inhibitor, full curve]"
12,O=C1c2ccccc2C(=O)N1CCc1nc(-c2ccc(Cl)cc2)no1,"inconclusive: 17.8 µM [inhibitor, partial curve, poor fit]"
13,COc1cccc(NC(=O)CC(=O)Nc2ccc3nc4n(c(=O)c3c2)CCCCC4)c1,"inconclusive: 35.5 µM [inhibitor, single point]"
14,Cc1cc(C)c(OCCCNCc2ccccc2)c(Br)c1,"inconclusive: 35.5 µM [inhibitor, single point]"
15,Cc1ccc(CN(C(=O)Cn2nnc3ccccc32)C(C(=O)NCc2ccco2)c2cccs2)cc1 (stereo unspecified),"inconclusive: 25.1 µM [inhibitor, single point]"
16,COc1cc([N+](=O)[O-])ccc1NC(=O)CC1SC(=Nc2ccc(F)cc2)N(CCC2=CCCCC2)C1=O (stereo unspecified),"inconclusive: 7.08 µM [inhibitor, full curve, poor fit]"
17,O=C(N/N=C/C1CC=CCC1)c1cc(-c2cccnc2)nc2ccccc12 (stereo unspecified),inactive
18,C[C@H](CO)N1C[C@H](C)[C@@H](CN(C)S(=O)(=O)c2cccs2)Oc2c(NS(=O)(=O)c3cn(C)cn3)cccc2C1=O,"inconclusive: 0.282 µM [inhibitor, full curve, poor fit]"
19,CCc1ccccc1NC1c2ccccc2C(=O)N1Cc1ccco1 (stereo unspecified),inactive
20,Cc1nn(-c2ccc(N3CCCCC3)nn2)c(C)c1CCC(=O)Nc1ccc(F)cc1F,"inconclusive: 15.8 µM [inhibitor, single point]"
21,C#CC(CO)N(CCN(Cc1ccccc1)C(C#C)CO)Cc1ccccc1 (stereo unspecified),"inconclusive: 20 µM [inhibitor, single point]"
22,Cc1ccc(C(=O)Oc2ccc([N+](=O)[O-])cc2)cc1S(=O)(=O)N1CCCCCC1,"inconclusive: 22.4 µM [inhibitor, single point]"

row,Structure (SMILES),Potency
1,CCOc1ccc(NS(=O)(=O)c2ccc(C(=O)N(C)C)s2)cc1,"inconclusive: 0.631 µM [inhibitor, full curve, poor fit]"
2,CCN(CC)c1ccc(/C=N/NC(=O)CNC(=O)C2COc3ccccc3O2)c(O)c1 (stereo unspecified),"inconclusive: 35.5 µM [inhibitor, single point]"
3,Clc1nc(Cl)nc(N(c2ccccc2)c2ccccc2)n1,"inconclusive: 5.01 µM [inhibitor, full curve]"
4,O=C(CSC1CS(=O)(=O)c2cc([N+](=O)[O-])ccc21)NNC(=O)c1ccc(Cl)cc1 (stereo unspecified),active: 12.6 µM
5,O=C1C(=O)N(c2ccccc2)C(c2ccccc2[N+](=O)[O-])/C1=C(\O)c1ccccc1 (stereo unspecified),"inconclusive: 0.708 µM [inhibitor, full curve, poor fit]"
6,CCn1c(=O)c(C(=O)CN2CCN(Cc3ccc4c(c3)OCO4)CC2)c(N)n(Cc2ccccc2)c1=O,inactive
7,Cc1ccc(NC(=O)C2CCN(S(=O)(=O)c3ccc4c(c3)NC(=O)C(C)S4)CC2)c(Cl)c1 (stereo unspecified),"inconclusive: 22.4 µM [inhibitor, single point]"
8,O=C(CCSCc1cccc(Cl)c1)N1CCN(c2ccc(Cl)cc2)CC1,"inconclusive: 35.5 µM [inhibitor, single point]"
9,CSc1nnc2c3ccccc3n(CCc3ccccc3)c2n1,inactive
10,CC(C)(C)NS(=O)(=O)c1ccc(Oc2ncc(C(F)(F)F)cc2Cl)cc1,"inconclusive: 11.2 µM [inhibitor, partial curve]"
11,CCCCCc1cc(=O)oc2c(C(CCN3CCCC3)c3cc(OC)c(OC)c(OC)c3)c(OC)cc(OC)c12 (stereo unspecified),"inconclusive: 35.5 µM [inhibitor, single point]"
12,Cc1cc(C)cc(NC(=S)N2CCC(c3nc4ccccc4s3)CC2)c1,"inconclusive: 20 µM [inhibitor, partial curve, poor fit]"
13,COc1ccc(S(=O)(=O)Nc2ccc3oc4c(c3c2)CCCC4)cc1,active: 12.6 µM
14,CCCn1c(SCC(=O)c2cc(OC)ccc2OC)nc2c1c(=O)n(C)c(=O)n2C,"inconclusive: 0.112 µM [inhibitor, full curve, poor fit]"
15,Cc1c(NC(=S)N/N=C/C=C/c2ccccc2)c(=O)n(-c2ccccc2)n1C,inactive
16,CCOC(=O)c1cnc2c(C)cccc2c1NCc1ccco1,inactive
17,CCOC(=O)c1c(NC(=O)CN2C(=O)NC(C)(c3ccc(OC(F)F)cc3)C2=O)sc(C)c1C (stereo unspecified),inactive
18,CC1(C)N=C(SCc2ccccc2Cl)c2ccccc2N1,"inconclusive: 35.5 µM [inhibitor, single point]"
19,Cc1ccccc1C(=O)NC(=S)Nc1sc2c(c1C#N)CCC(C)C2 (stereo unspecified),inactive
20,Cc1ccc(S(=O)(=O)c2nnn3c2nc(NC(C)C)c2cc(Cl)ccc23)cc1C,inactive
21,CCn1c(SCC(=O)c2ccccc2)nnc1-c1cc2cc(Br)ccc2o1,inactive
22,CCCCNC(=O)CSc1nc2n[nH]c(C)c2c(=N)n1-c1cccc(Cl)c1C,"inconclusive: 15.8 µM [inhibitor, partial curve] and inconclusive: 100 nM [inhibitor, full curve, poor fit]"

row,Structure (SMILES),Potency
1,CCN1C(=O)C2CCCCN2c2ccc(C(=O)NCCOC)cc21 (stereo unspecified),inactive
2,CCOc1cc(C2NC(=O)NC(O)(C(F)(F)F)C2C(=O)c2ccc(OC)cc2)ccc1O (stereo unspecified),"inconclusive: 35.5 µM [inhibitor, single point]"
3,CC(C)CC(N)c1csc(Nc2ccc(C(=O)c3ccccc3)cc2)n1 (stereo unspecified),active: 17.8 µM
4,CCCN(CCC)c1nc(N)c(C#N)c(CC#N)c1C#N,"inconclusive: 35.5 µM [inhibitor, single point]"
5,O=C1NC(=O)/C(=C/c2ccco2)N1,"inconclusive: 1 µM [inhibitor, full curve, poor fit]"
6,O=C(/C=C/c1cccnc1)/C=C/c1cccnc1,active: 3.55 µM
7,COc1ccc(/C=C2\SC(N3CCc4ccccc4C3)=NC2=O)cc1,inactive
8,O=C(NCc1c(Cl)cccc1Cl)c1[nH]c(C(F)(F)F)nc1-c1ccccc1,"inconclusive: 3.16 µM [inhibitor, partial curve, poor fit]"
9,CN(C)CCNC(=O)c1cccc(-c2cnc3c(NC=O)cc(-c4cc(F)c(F)c(F)c4)cn23)c1,"inconclusive: 14.1 µM [inhibitor, single point]"
10,COc1ccc(Cl)cc1NC(=O)C(C)Sc1nc2c(c(=O)[nH]1)CCCC2 (stereo unspecified),inactive
11,Cc1ccc(C(=O)c2c3ccc(C(F)(F)F)cc3nn2CCC(N)=O)cc1,"inconclusive: 31.6 µM [inhibitor, single point]"
12,O=C(CSc1ccc(-c2cccs2)nn1)Nc1ccccc1C(F)(F)F,inactive
13,Cn1nc(C(=O)Nc2cccnc2)c2ccccc2c1=O,inactive
14,C/C(=N\Nc1nccnc1Cl)c1ccc([N+](=O)[O-])cc1,"inconclusive: 0.708 µM [inhibitor, full curve]"
15,O=C(c1cccc(C(=O)N2CCN(c3ccccc3F)CC2)c1)N1CCN(c2ccccc2F)CC1,inactive
16,O=C(CCC1N=C2c3ccccc3N=C(SCc3ccc(F)cc3)N2C1=O)NCCc1ccccc1 (stereo unspecified),"inconclusive: 2.82 µM [inhibitor, partial curve, poor fit]"
17,COc1ccc(-c2noc(N3CCC(C(=O)Nc4cccc(OC)c4)CC3)n2)cc1,"inconclusive: 28.2 µM [inhibitor, single point]"
18,CNC(=O)c1[nH]cnc1C(=O)N[C@@H](C)C(=O)OCc1ccccc1,"inconclusive: 35.5 µM [inhibitor, single point]"
19,CS(=O)(=O)N(CC(=O)N1CCOCC1)c1cc(Cl)ccc1Cl,inactive
20,Cc1oc(-c2cccc(Cl)c2)nc1CS(=O)(=O)CC(=O)NC(C)CCc1ccccc1 (stereo unspecified),active: 10 µM
21,O=C(CN1C(=O)CSc2ccc(S(=O)(=O)N3CCOCC3)cc21)NCCCN1CCc2ccccc2C1,inactive
22,O=C1CC(Sc2nnnn2C2CCCCC2)C(=O)N1c1ccccc1 (stereo unspecified),"inconclusive: 20 µM [inhibitor, single point]"
